Experimental data reported in the supplement of paper PMC8728848.
Some of the results follow.

Assays:
Experiment in all cases: glycan array binding signal (z-score within array); higher = stronger binding
Settings in all cases: glycan notation: IUPAC condensed, linker removed
[1] = target: Neu5Ac(a2-3)Gal(b1-3)GalNAc
Method in brief: (§1)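 Arrays were curated from the Consortium for Functional Glycomics database, 3228 in total, and kept only where the protein sequence was available. Binding is expressed as a within-array Z-score. This score was averaged across arrays of the same protein sequence at different concentrations or buffers and across linkers, and negative values can be read as non-binding.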

[2] = target: Neu5Ac(a2-3)Gal(b1-3)GalNAc(b1-3)Gal(a1-4)Gal(b1-4)Glc
Method in brief: as §1

[3] = target: Neu5Ac(a2-3)Gal(b1-3)GalNAc(b1-4)[Neu5Ac(a2-3)]Gal(b1-4)Glc
Method in brief: as §1

[4] = target: Neu5Ac(a2-3)Gal(b1-3)GalNAc(b1-4)[Neu5Ac(a2-8)Neu5Ac(a2-3)]Gal(b1-4)Glc
Method in brief: as §1

[5] = target: Neu5Ac(a2-3)Gal(b1-3)GalNAc6S
Method in brief: as §1

[6] = target: Neu5Ac(a2-3)Gal(b1-3)GlcNAc
Method in brief: as §1

[7] = target: Neu5Ac(a2-3)Gal(b1-3)GlcNAc(b1-2)Man
Method in brief: as §1

[8] = target: Neu5Ac(a2-3)Gal(b1-3)GlcNAc(b1-2)Man(a1-3)[GlcNAc(b1-4)][Neu5Ac(a2-3)Gal(b1-3)GlcNAc(b1-2)Man(a1-6)]Man(b1-4)GlcNAc(b1-4)GlcNAc
Method in brief: as §1

[9] = target: Neu5Ac(a2-3)Gal(b1-3)GlcNAc(b1-2)Man(a1-3)[Neu5Ac(a2-3)Gal(b1-3)GlcNAc(b1-2)Man(a1-6)]Man(b1-4)GlcNAc(b1-4)GlcNAc
Method in brief: as §1

[10] = target: Neu5Ac(a2-3)Gal(b1-3)GlcNAc(b1-3)Gal(b1-3)GlcNAc
Method in brief: as §1

[11] = target: Neu5Ac(a2-3)Gal(b1-3)GlcNAc(b1-3)Gal(b1-4)GlcNAc
Method in brief: as §1

[12] = target: Neu5Ac(a2-3)Gal(b1-3)GlcNAc(b1-3)GalNAc
Method in brief: as §1

[13] = target: Neu5Ac(a2-3)Gal(b1-3)GlcNAc(b1-4)Gal(b1-4)Glc
Method in brief: as §1

[14] = target: Neu5Ac(a2-3)Gal(b1-3)GlcNAc(b1-6)GalNAc
Method in brief: as §1

[15] = target: Neu5Ac(a2-3)Gal(b1-3)GlcNAc6S
Method in brief: as §1

[16] = target: Neu5Ac(a2-3)Gal(b1-3)[Fuc(a1-4)]GlcNAc
Method in brief: as §1

[17] = target: Neu5Ac(a2-3)Gal(b1-3)[Fuc(a1-4)]GlcNAc(b1-3)Gal(b1-3)[Fuc(a1-4)]GlcNAc
Method in brief: as §1

[18] = target: Neu5Ac(a2-3)Gal(b1-3)[Fuc(a1-4)]GlcNAc(b1-3)Gal(b1-4)[Fuc(a1-3)]GlcNAc
Method in brief: as §1

[19] = target: Neu5Ac(a2-3)Gal(b1-3)[GlcNAc(b1-6)]GalNAc
Method in brief: as §1

[20] = target: Neu5Ac(a2-3)Gal(b1-3)[Neu5Ac(a2-6)]GalNAc
Method in brief: as §1

[21] = target: Neu5Ac(a2-3)Gal(b1-3)[Neu5Ac(a2-6)]GlcNAc(b1-3)[Fuc(a1-3)[Gal(b1-4)]GlcNAc(b1-6)]Gal(b1-4)Glc
Method in brief: as §1

[22] = target: Neu5Ac(a2-3)Gal(b1-3)]Neu5Ac(a2-3)Gal(b1-4)]GlcNAc
Method in brief: as §1

Neu5Ac(a2-3)Gal(b1-4)Glc = target: Neu5Ac(a2-3)Gal(b1-4)Glc
Method in brief: as §1

[23] = target: Neu5Ac(a2-3)Gal(b1-4)GlcNAc
Method in brief: as §1

[24] = target: Neu5Ac(a2-3)Gal(b1-4)GlcNAc(b1-2)Man
Method in brief: as §1

[25] = target: Neu5Ac(a2-3)Gal(b1-4)GlcNAc(b1-2)Man(a1-3)[GlcNAc(b1-4)][Neu5Ac(a2-3)Gal(b1-4)GlcNAc(b1-2)Man(a1-6)]Man(b1-4)GlcNAc(b1-4)GlcNAc
Method in brief: as §1

[26] = target: Neu5Ac(a2-3)Gal(b1-4)GlcNAc(b1-2)Man(a1-3)[Neu5Ac(a2-3)Gal(b1-4)GlcNAc(b1-2)Man(a1-6)]Man(b1-4)GlcNAc(b1-4)GlcNAc
Method in brief: as §1

[27] = target: Neu5Ac(a2-3)Gal(b1-4)GlcNAc(b1-2)Man(a1-3)[Neu5Ac(a2-3)Gal(b1-4)GlcNAc(b1-2)Man(a1-6)]Man(b1-4)GlcNAc(b1-4)[Fuc(a1-6)]GlcNAc
Method in brief: as §1

[28] = target: Neu5Ac(a2-3)Gal(b1-4)GlcNAc(b1-2)Man(a1-3)[Neu5Ac(a2-6)Gal(b1-4)GlcNAc(b1-2)Man(a1-6)]Man(b1-4)GlcNAc(b1-4)GlcNAc
Method in brief: as §1

[29] = target: Neu5Ac(a2-3)Gal(b1-4)GlcNAc(b1-2)[Neu5Ac(a2-3)Gal(b1-4)GlcNAc(b1-4)]Man(a1-3)[GlcNAc(b1-4)][Neu5Ac(a2-3)Gal(b1-4)GlcNAc(b1-2)[Neu5Ac(a2-3)Gal(b1-4)GlcNAc(b1-6)]Man(a1-6)]Man(b1-4)GlcNAc(b1-4)GlcNAc
Method in brief: as §1

[30] = target: Neu5Ac(a2-3)Gal(b1-4)GlcNAc(b1-2)[Neu5Ac(a2-3)Gal(b1-4)GlcNAc(b1-4)]Man(a1-3)[GlcNAc(b1-4)][Neu5Ac(a2-3)Gal(b1-4)GlcNAc(b1-4)Man(a1-6)]Man(b1-4)GlcNAc(b1-4)GlcNAc
Method in brief: as §1

[31] = target: Neu5Ac(a2-3)Gal(b1-4)GlcNAc(b1-2)[Neu5Ac(a2-3)Gal(b1-4)GlcNAc(b1-6)]Man(a1-6)[Neu5Ac(a2-3)Gal(b1-4)GlcNAc(b1-2)Man(a1-3)]Man(b1-4)GlcNAc(b1-4)GlcNAc
Method in brief: as §1

[32] = target: Neu5Ac(a2-3)Gal(b1-4)GlcNAc(b1-2)[Neu5Ac(a2-3)Gal(b1-4)GlcNAc(b1-6)]Man(a1-6)[Neu5Ac(a2-3)Gal(b1-4)GlcNAc(b1-2)Man(a1-3)][GlcNAc(b1-4)]Man(b1-4)GlcNAc(b1-4)GlcNAc
Method in brief: as §1

[33] = target: Neu5Ac(a2-3)Gal(b1-4)GlcNAc(b1-3)Gal
Method in brief: as §1

[34] = target: Neu5Ac(a2-3)Gal(b1-4)GlcNAc(b1-3)Gal(b1-3)GlcNAc
Method in brief: as §1

[35] = target: Neu5Ac(a2-3)Gal(b1-4)GlcNAc(b1-3)Gal(b1-4)GlcNAc
Method in brief: as §1

[36] = target: Neu5Ac(a2-3)Gal(b1-4)GlcNAc(b1-3)Gal(b1-4)GlcNAc(b1-2)Man(a1-3)[Neu5Ac(a2-3)Gal(b1-4)GlcNAc(b1-3)Gal(b1-4)GlcNAc(b1-2)Man(a1-6)]Man(b1-4)GlcNAc(b1-4)GlcNAc
Method in brief: as §1

B1: SP8524D-bot-399-27-399 (Bacteroides ovatus) (protein)
chain: DAKYDTLDTHAYIEEALSSTSQKVTVQATGESFTTLNVHLSNLSSTDNHYKLVTDQSVLDTYNHINGTGYIMLPKDYYTLPETITVKAGQYAADALSIALKAFSQEMMKSGESYALPVKLVLQDGSISPMENTGTFVILAESIIEFSAPMFVGAPSLKANKFTESPETYSQYTIEVRFQVANTADRDRAVFKNGGDDANFILLRFEDPQSDNENYKAHSLVQIVGRNRLYLNPSNSFKPNEWQHLALVCDGSNYRLYINGVDSGVLSIPTGATTFSDVNWFCLGDDSYSRWGNCKILMSEARIWSVVRSASQIQNNMTQVSPKSVGLEAYWRFNEGQGNVFEDATGKGHTLTTSATPTWIDGILSTDKSTEWK
glycan array binding signal (z-score) [1]: 0.438 | glycan array binding signal (z-score) [2]: -0.14 | glycan array binding signal (z-score) [3]: -0.508 | glycan array binding signal (z-score) [4]: 0.193 | glycan array binding signal (z-score) [5]: -0.5 | glycan array binding signal (z-score) [6]: -0.179 | glycan array binding signal (z-score) [7]: -0.459 | glycan array binding signal (z-score) [8]: -0.249 | glycan array binding signal (z-score) [9]: -0.631 | glycan array binding signal (z-score) [10]: -0.249 | glycan array binding signal (z-score) [11]: -0.067 | glycan array binding signal (z-score) [12]: -0.628 | glycan array binding signal (z-score) [13]: -0.322 | glycan array binding signal (z-score) [14]: -0.136 | glycan array binding signal (z-score) [15]: 0.296 | glycan array binding signal (z-score) [16]: -0.155 | glycan array binding signal (z-score) [17]: 0.014 | glycan array binding signal (z-score) [18]: 0.259 | glycan array binding signal (z-score) [19]: -0.093 | glycan array binding signal (z-score) [20]: -0.102 | glycan array binding signal (z-score) [21]: 0.027 | glycan array binding signal (z-score) [22]: -0.212 | glycan array binding signal (z-score) (Neu5Ac(a2-3)Gal(b1-4)Glc): 0.259 | glycan array binding signal (z-score) [23]: -0.297 | glycan array binding signal (z-score) [24]: 0.064 | glycan array binding signal (z-score) [25]: -0.305 | glycan array binding signal (z-score) [26]: -0.238 | glycan array binding signal (z-score) [27]: -0.357 | glycan array binding signal (z-score) [28]: -0.574 | glycan array binding signal (z-score) [29]: -0.648 | glycan array binding signal (z-score) [30]: -0.014 | glycan array binding signal (z-score) [31]: 0.013 | glycan array binding signal (z-score) [32]: 0.088 | glycan array binding signal (z-score) [33]: -0.252 | glycan array binding signal (z-score) [34]: 0.167 | glycan array binding signal (z-score) [35]: 0.179 | glycan array binding signal (z-score) [36]: -0.319
